# From article PMC7819943, “Rice protein-binding microarrays: a tool to detect cis-acting elements near promoter regions in rice”
# The list shows a part of the results.
# Molecular target: T1, OsWOX13 (Oryza sativa, UniProt Q5QMM3 1-267)
# T1 sequence: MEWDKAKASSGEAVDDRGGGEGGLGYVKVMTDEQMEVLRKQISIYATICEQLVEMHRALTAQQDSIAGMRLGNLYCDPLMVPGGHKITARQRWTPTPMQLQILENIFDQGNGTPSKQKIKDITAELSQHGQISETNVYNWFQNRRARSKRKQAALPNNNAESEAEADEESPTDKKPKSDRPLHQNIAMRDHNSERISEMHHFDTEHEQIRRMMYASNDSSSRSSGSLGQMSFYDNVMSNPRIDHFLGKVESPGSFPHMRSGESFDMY
# Test: protein-binding microarray (RPBM); PBS, 2% BSA, 51.3 ng/ul salmon testes DNA, 50 uM zinc acetate, 200 nM TF, 25 C, 1 h; high values mean tight binding
# Conditions: protein: recombinant; tags: N-terminal polyhistidine and DsRed monomer fusion (pET32a); label: CyDye5-dUTP incorporated in the synthesized complementary strand; 3' TTTTT single-stranded linker to array surface; dsDNA, one strand shown
# Procedure, shortened: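 The binding signal for each feature is its fluorescence intensity in arbitrary units. An Axon 4000B scanner was used to read a custom Agilent array that had been made double-stranded with Cy5-dUTP primer extension, blocked with 2% BSA, incubated at 25 °C for 1 h with 200 nM protein in PBS, 2% BSA, salmon testes DNA and 50 µM zinc acetate, and washed. The protein was an N-terminal polyhistidine–DsRed transcription factor fusion from E. coli BL21-CodonPlus, purified on Ni–NTA.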
row,Sequence,binding signal
1,TTGATCGATCACGCCAATTACCGGGTGCAGCTGCAAGCCTCGGAGTCACCTAGTGCAG,9470 fluorescence intensity (a.u.)
2,ATAAAATAGAGATAAATGGAGATGTGTTTCTCCCATTACCCGGAGTCACCTAGTGCAG,4690 fluorescence intensity (a.u.)
3,TCTAATGATGCGTTAATACTAGTATACATCTGTAATGTCACGGAGTCACCTAGTGCAG,3470 fluorescence intensity (a.u.)
4,GATGATGGGGAATAAACTAATAATAAAATGGATATGTAGACGGAGTCACCTAGTGCAG,7470 fluorescence intensity (a.u.)
5,TTTTCAATGATTGGTATATGTGTGCTTGTGACATATATGCCGGAGTCACCTAGTGCAG,37000 fluorescence intensity (a.u.)
6,GGGTGGGAGGGAGGGAGTACATGGTAAGGCCATTCAACAGCGGAGTCACCTAGTGCAG,6320 fluorescence intensity (a.u.)
7,GCAGACGATGATGATATGACTGAAATACCCTCACCGTCCTCGGAGTCACCTAGTGCAG,5860 fluorescence intensity (a.u.)
8,CCGTTGACAGAGGTAGTACCTTACCATATTGGTCAGTAGCCGGAGTCACCTAGTGCAG,15500 fluorescence intensity (a.u.)
9,ATAAATTTTAAAGTTAACCTAATGGTTTTAAAATATATGACGGAGTCACCTAGTGCAG,6590 fluorescence intensity (a.u.)
10,GAGATAATTGAAGCTTTGTTAAGCTTAAACACTGAACTAACGGAGTCACCTAGTGCAG,16400 fluorescence intensity (a.u.)
11,AGCAGATGAGTTGACAGGCAGGTTCTTGTCTTCACACTGTCGGAGTCACCTAGTGCAG,6630 fluorescence intensity (a.u.)
12,GGATGAGTTAATTTACATGGCTTATAAGGCTCGATGCTCCCGGAGTCACCTAGTGCAG,8320 fluorescence intensity (a.u.)
13,AAGAATTTAAGCAAATTACCTTTATTACAAATTACTGATCCGGAGTCACCTAGTGCAG,5860 fluorescence intensity (a.u.)
14,ATTATAATTGAAGTATAGTTGTACTGTAACTGTATTGTAACGGAGTCACCTAGTGCAG,32500 fluorescence intensity (a.u.)
15,AAAGAAAATGTTGACTGGATTGACACGCGTACGCTATGTACGGAGTCACCTAGTGCAG,16700 fluorescence intensity (a.u.)
16,TCCTGATGAGCAGAATCCAATCAGAAAACGCATGCTCGATCGGAGTCACCTAGTGCAG,19300 fluorescence intensity (a.u.)
17,ATCTCGCCCAATTATTAACGCCTCCCTTTGTACACCGCACCGGAGTCACCTAGTGCAG,3720 fluorescence intensity (a.u.)
18,TCCATATTAATTGACGTTTTAGACAAGGTTGATGTCAAATCGGAGTCACCTAGTGCAG,42600 fluorescence intensity (a.u.)
19,TTAAATAGAGTTAGATTGAGGAATTACCAAAATAGAAATTCGGAGTCACCTAGTGCAG,19500 fluorescence intensity (a.u.)
20,GCATTTTATGTAAACTAATTGAGCACTTGAGGTGTTGAAGCGGAGTCACCTAGTGCAG,10400 fluorescence intensity (a.u.)
21,CAACTTCATCAGCAGAAATTGACATGGTGTGATATTTGTGCGGAGTCACCTAGTGCAG,3970 fluorescence intensity (a.u.)

row,Sequence,binding signal
1,GATTCCAAATTGACACTAAACCAAACCAAACCAATCCAACCGGAGTCACCTAGTGCAG,13500 fluorescence intensity (a.u.)
2,TGTTTGTGTATGTTATGTCTGTAATTACTTTTAGGCATTGCGGAGTCACCTAGTGCAG,3620 fluorescence intensity (a.u.)
3,AGGTAATTATAGTCCTTTTCTTATAACATTAATATATGCTCGGAGTCACCTAGTGCAG,16100 fluorescence intensity (a.u.)
4,AAAGATTGCTTACGATAGTTTGTATGAATGAAAAGTGACCCGGAGTCACCTAGTGCAG,5330 fluorescence intensity (a.u.)
5,GCTGCGCATATAATTATTCCCTCGCCAAGCTATATATATTCGGAGTCACCTAGTGCAG,3290 fluorescence intensity (a.u.)
6,AACTTCAAATTAGTAAACGAAAAGTTTCTGAGTTGGGAAACGGAGTCACCTAGTGCAG,3780 fluorescence intensity (a.u.)
7,AGATTGCTTTACAATGATTAGATTGCTTTCCAATGGGACGCGGAGTCACCTAGTGCAG,13500 fluorescence intensity (a.u.)
8,AGTGATGACATATAATTAACACAACTTTAGCTTGTACTTTCGGAGTCACCTAGTGCAG,30100 fluorescence intensity (a.u.)
9,ACCTTTTCTTGGAATTGGACCAAACAGTTTCAACTCCACCCGGAGTCACCTAGTGCAG,5360 fluorescence intensity (a.u.)
10,CCCTAAAATTAACCAACCAAACCAAATCGCGTTTAATTTTCGGAGTCACCTAGTGCAG,5210 fluorescence intensity (a.u.)
11,AGGCCTGGGATGATTGAGATGATACTTAAGTATCTTGGAGCGGAGTCACCTAGTGCAG,12100 fluorescence intensity (a.u.)
12,ACTCACGCGCAATTAGCTGGTTTTGATGGGTCAGGAGGAACGGAGTCACCTAGTGCAG,5020 fluorescence intensity (a.u.)
13,GAAGATTGGGCCAGTAAATGGGCCTATAAATCGGGACGTTCGGAGTCACCTAGTGCAG,13500 fluorescence intensity (a.u.)
14,TAGTCCTAATTACTAACTACCAAATCTCTTGGATCTTGATCGGAGTCACCTAGTGCAG,11500 fluorescence intensity (a.u.)
15,AACCTTAAATTAGCGGGCAAATTCAGGAGTACTTCAGTGGCGGAGTCACCTAGTGCAG,22400 fluorescence intensity (a.u.)
16,TTCTCACGTCTAACCAATCACTTCTCTCCATTTACGAACCCGGAGTCACCTAGTGCAG,8150 fluorescence intensity (a.u.)
17,GAAGTAAACGTAACTCAATTAATTAGATTTCTAAGATTATCGGAGTCACCTAGTGCAG,5680 fluorescence intensity (a.u.)
18,AAAATTATTTGTTGAAACATATAAATAGATCACGTGCAACCGGAGTCACCTAGTGCAG,3790 fluorescence intensity (a.u.)
19,CTAGACAGACTGGCATCAGTCAAGCTTTCTCAAGTGAAAACGGAGTCACCTAGTGCAG,23800 fluorescence intensity (a.u.)
20,GCAGAGAGAGGGGAGGAGGGTGGGTGGCGGCGGCGGCTAGCGGAGTCACCTAGTGCAG,3440 fluorescence intensity (a.u.)
21,GAGGAGAAGGTCAGTCAATCAGTGGCCGATCCCAATCGAACGGAGTCACCTAGTGCAG,6750 fluorescence intensity (a.u.)
